{"source": "PubChem BioAssay AID588689", "about": "(Southern Research Specialized Biocontainment Screening …, 2011)", "note": "Hit rate of the full screen: of about 340,000 compounds, about 1,000 (0.29%) were called active. Inconclusive results, whose numbers are uncertain, are shown with a selection of clear calls. Cut-off read from the data, not from the text of the source: inconclusive = inhibition above about 29% without an active follow-up result; inactive = below that.", "data": [{"target": "Genome polyprotein (Dengue virus type 2 (strain 16681-PDK53)) (UniProt P29991)", "assay": "Dengue-2 NS5 methyltransferase inhibitors, primary screen, biochemical, confirmation dose response (AID 588689)", "conditions": "Dengue-2 NS5 methyltransferase capping enzyme assay, at 25 µM, active compounds read high", "values": [{"smiles": "CCOC(=O)c1c(N2C(=O)Nc3cc(Cl)c(Cl)cc3N2O)sc2c1CCCCC2", "inhibition": "inconclusive: 61.6%"}, {"smiles": "N#Cc1c(C(F)(F)F)cc(-c2ccc(Cl)c(Cl)c2)nc1SCCN1CCOCC1", "inhibition": "inconclusive: 60.7%"}, {"smiles": "O=C1C(Cl)=C(N2CCOCC2)C(=O)N1CCc1ccccc1", "inhibition": "inactive: -0.8%"}, {"smiles": "N#CC(C(=O)NCc1ccccc1)c1nc2ccccc2nc1N1CCCC1", "note": "(stereo not given)", "inhibition": "inconclusive: 74.1%"}, {"smiles": "O=c1c(/C=N/Nc2ccccc2)c(Sc2nnnn2-c2ccccc2)nc2ccccn12", "inhibition": "inconclusive: 28.5%"}, {"smiles": "CC(=O)Oc1ccc2c(c1)O/C(=C\\c1ccncc1)C2=O", "inhibition": "inconclusive: 81.2%"}, {"smiles": "COc1cccc(CNC(=O)c2cccc(NC(=O)C3=C(C)OCCS3)c2)c1", "inhibition": "inactive: -1.39%"}, {"smiles": "CCOc1cc(C(=O)NCCC(=O)N2CCC3(CC2)NCCc2[nH]cnc23)cc(OCC)c1OCC", "inhibition": "inactive: -6.21%"}, {"smiles": "CCc1cc[n+](-c2nc([O-])sc2C=O)cc1", "inhibition": "inconclusive: 115%"}, {"smiles": "CCOC(=O)/C(=C/c1c(C)n(C)c2ccc([N+](=O)[O-])cc12)C(C)=O", "inhibition": "inconclusive: 80.1%"}, {"smiles": "CCOC(=O)N/N=C/c1cc(C)n(-c2cccc3ccccc23)c1C", "inhibition": "inactive: 1.3%"}, {"smiles": "CC(=O)N(C1=C(N)C(=O)c2ccccc2C1=O)c1ccccc1", "inhibition": "inactive: -4.08%"}, {"smiles": "O=Cc1ccc(-c2ccccc2C(=O)O)o1", "inhibition": "inactive: -2.22%"}, {"smiles": "O=C(O)C(Cc1ccccc1)N1C(=O)/C(=C/c2ccccc2)SC1=S", "note": "(stereo not given)", "inhibition": "inactive: 15.5%"}, {"smiles": "CCn1c(CSc2nccn2C)nc2cc(C(=O)O)ccc21", "inhibition": "inactive: 1.61%"}, {"smiles": "COc1ccc(-n2c(C)ccc2-c2ccccc2)cn1", "inhibition": "inconclusive: 39.6%"}, {"smiles": "CC1=C(C)/C(=N\\OS(=O)(=O)c2ccccc2)C=CC1=O", "inhibition": "inconclusive: 36.5%"}, {"smiles": "C=CCN1C=C2C(=O)C(C)(OC(=O)CCC(=O)OC)C(=O)C(Br)=C2C=C1c1ccc(OC)cc1", "note": "(stereo not given)", "inhibition": "inconclusive: 85.1%"}, {"smiles": "CN1CCN(Cc2c(C(=O)N3CCc4ccccc4C3)nc3ccc(Cl)cn23)CC1", "inhibition": "inconclusive: 30.5%"}, {"smiles": "Cc1sc2nc(COC(=O)c3cccc(S(=O)(=O)N(C)c4ccccc4)c3)[nH]c(=O)c2c1C", "inhibition": "inconclusive: 40.5%"}, {"smiles": "Cc1cccc(NC(=O)Nc2cnccn2)c1", "inhibition": "inactive: -2.65%"}, {"smiles": "COc1cc(/C=C/C(=O)/C=C(O)/C=C/c2ccc(O)c(OC)c2)ccc1O", "inhibition": "inconclusive: 165%"}, {"smiles": "CCN1/C(=C2\\SC(=S)N(Cc3ccccc3)C2=O)Sc2ccccc21", "inhibition": "inconclusive: 53.2%"}, {"smiles": "O=C1c2ccccc2C(=O)N1c1ccccc1", "inhibition": "inactive: -3.62%"}, {"smiles": "CN(C)c1ccc(/C=C/c2nc3ccccc3c(=O)n2-c2ccc(C(=O)O)cc2)cc1", "inhibition": "inconclusive: 172%"}]}]}
